Assay results from PubChem BioAssay AID493208 (National Center for Advancing Translational Sciences (NCATS), 2011).
About 340 (0.77%) of roughly 44,000 compounds were called active. Not shown: some 5% with an inconclusive outcome. Calls come from the whole dose curve; as a rule, active = well fitted inhibition curve with a large enough effect; inconclusive = small, poorly fitted or top-dose-only effect; inactive = flat fitted curve, though single readings scatter. The list shows a part of the results.

Assay: Acumen qHTS Assay for Inhibitors of the mTORC1 Signaling Pathway in MEF (Tsc2-/-, p53-/-) Cells: Sytravon;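 note: plate controls were DMSO for no effect and rapamycin for full effect; nearly all actives have a fitted effect of over 50% in size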
Conditions: phospho-rpS6 immunofluorescence/PI, 24 h; series mostly up to 38.3 µM; activity change, negative = inhibition: at the top concentration
In short: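 Immunofluorescence of rpS6 phosphorylation in Tsc2-/-, p53-/- MEFs after 24 h compound exposure, normalized to propidium iodide signal. Activity is expressed as % positive cells, thresholded with 7.5 nM rapamycin.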

Activity change, negative = inhibition, inactive:
CCc1cnc2c(c1SCC(=O)c1ccc(Cl)cc1)c(=O)n(C)c(=O)n2C 4.04%
CCOC(=O)c1c(-c2ccc(OC)cc2)oc2ccc(OCc3ccc(Br)cc3)cc12 -16.7%
O=C(NCCc1ccc(F)cc1)C(=O)NCC(c1ccco1)S(=O)(=O)c1cccs1 (centres undefined) -0.0121%
COc1ccc(S(=O)(=O)n2nc(C)c(S(=O)(=O)N3CCC(C)CC3)c2C)cc1OC 1.73%
Cc1ccc(N(CC(=O)Nc2ccc(Br)cc2)S(=O)(=O)c2cccs2)cc1 -22.4%
CCc1ccccc1NC(=O)c1ccc2nc(C(C)C)oc2c1 -9.4%
O=C(Nc1nnc2n1CCS2)c1ccccc1C(F)(F)F -1.18%
CC(C)CCNC(=O)CCC(=O)NNc1nc2ccccc2c2nc(-c3ccccc3)nn12 -4.27%
COc1cc(OC)cc(C(=O)N2CC(=O)Nc3ccc(Cl)cc3C2c2ccccc2)c1 (centres undefined) -4.02%
COc1ccc(C2=C(C)C(N3CCC(C(=O)Nc4ccc(F)cc4C)CC3)=NS2(=O)=O)cc1 -8.27%
O=C(Nc1ccc(Cl)c(C(F)(F)F)c1)C(Cc1ccccc1)NS(=O)(=O)c1ccc(Br)s1 (centres undefined) 2.64%
Brc1cccc(-c2cnn3c(-c4ccccc4)cc(-c4ccccc4)nc23)c1 8.2%
CCOc1ccc(NC(=O)C(=O)NCc2ccco2)cc1 9.1%
COc1cccc(C(=O)NCC(c2ccc3c(c2)OCO3)N2CCOCC2)c1 (centres undefined) 2.6%
O=C(NCc1ccccc1)C(=O)NCC(c1cccs1)S(=O)(=O)c1ccccc1 (centres undefined) -1.6%
CC1(C)CC(=O)c2cc(C(=O)Nc3ccccc3Cl)c(=O)n(-c3ccc(Cl)cc3)c2C1 -11.1%
COc1ccc2cc3cc(C(=O)NCc4ccccc4OC)oc3nc2c1 5.07%
Cc1cccc(N2CCN(S(=O)(=O)c3csc(C(N)=O)c3)CC2)c1C -22.5%
Cc1cccc(NC(=O)CSc2nc(-c3ccco3)cc(C(F)(F)F)n2)c1C -17.4%
Cc1ccc(-c2nc3ncccc3o2)cc1NC(=O)c1ccc(-c2ccc(Cl)cc2)o1 -1.85%
Cc1ccc(N(Cc2cccs2)C(=O)c2ccccc2Cl)cc1 -1.08%
CCOC(=O)c1ccc(NC(=O)c2cc3sccc3n2Cc2ccc(Cl)cc2)cc1 -12.3%
O=C(Nc1nnc2n1CCS2)c1ccc(F)cc1F -3.94%
O=C(c1ccccc1Cl)N1CCCCC1CCN1CCCCC1 (centres undefined) -2.83%
COc1ccc(NC(=O)C(C)N(c2ccccc2)S(C)(=O)=O)cc1 (centres undefined) -16.7%
COc1ccc(C)cc1NC(=O)Cn1c(=O)n(Cc2nc(C)no2)c(=O)c2ccccc21 -7.16%
CCOc1ccccc1NC(=O)C(CC)Sc1nc2ccncc2[nH]1 (centres undefined) -8.5%
COc1ccc(CCNC(=O)c2ccc(Cn3c(=O)c4ccccc4n(Cc4cccc(Cl)c4)c3=O)cc2)cc1OC 12.1%
CC(C)c1ccc(NS(=O)(=O)c2ccc3nc(-c4ccccc4)[nH]c3c2)cc1 -1.33%
CCOc1ccc(CN2CCc3nc(Nc4ccc5c(c4)OCCO5)ncc3C2)cc1 8.32%
Cc1nn2c(=O)cc(COC(=O)c3ccccc3NC(=O)C(C)Oc3ccccc3)nc2s1 (centres undefined) 4.53%
Cc1ccc(-n2c(=O)c3ccc(C(=O)NCc4ccco4)cc3n(Cc3ccccc3C#N)c2=O)cc1 1.06%
COc1ccc(NC(=O)c2ccc3c(c2)sc2nc(-c4ccc(OC)cc4)cn23)cc1 7.01%
Cc1ccc(NC(=O)Cn2c(=O)n(Cc3ccco3)c(=O)c3ccccc32)c(C)c1 -0.917%
CCOc1ccc(C2CC(=O)N(c3cccc(F)c3)C3=C2C(=O)OC3)cc1 (centres undefined) -1.62%
Cc1ccc(-n2nc3c(=O)n(CCCC(=O)NCCc4ccccc4Cl)nc(C)c3c2C)cc1 -0.68%
Cc1ccc(-c2cn(-c3cccc(Cl)c3)c(S(=O)(=O)CC(=O)Nc3ccccc3F)n2)cc1 -12.9%
COc1cc(C2c3c(oc4cc(C)c(C)cc4c3=O)C(=O)N2CCCN2CCOCC2)ccc1O (centres undefined) 5.19%
CCOC(=O)c1cc(S(=O)(=O)Nc2ccc(Br)c(C)c2)[nH]n1 -6.33%
Cc1ccc2c(c1)c1c(c(=O)n(-c3cccc(Cl)c3)c(=O)n1CC(=O)N1CCCC1)n2C -2.22%
Cc1c(C(=O)N2CCC(c3nc4ccccc4s3)CC2)oc2cc(Br)ccc12 -14.3%
CCCNC(=O)c1cc2nc(-c3ccc(Br)cc3)cc(C(F)(F)F)n2n1 -9.3%
CCOc1ccc(-n2c(SCc3nc(-c4ccc(OC)cc4)no3)nnc2-c2ccncc2)cc1 5.07%
COc1ccc(Br)cc1CNC(=O)c1cc(=O)[nH]c2ccc(S(=O)(=O)N3CCCC3)cc12 5.76%
CCOc1cccc2cc(-c3nc4sc5c(c4c(=O)[nH]3)CCC(C(C)(C)C)C5)c(=O)oc12 (centres undefined) -22.2%
COc1ccc(Br)cc1CNC(=O)c1cc2ccccn2n1 -4.66%
CCOc1ccccc1NC(=O)Cn1c(=O)n(CCC(C)C)c(=O)c2cccnc21 -8.39%
O=C(COC(=O)c1cc(-c2cccs2)nc2ccccc12)c1ccc(Br)cc1 0.892%
Cc1nc2ccccc2n1CCc1nc2c3ccccc3nc(SCc3cccc(F)c3)n2n1 0.512%
CC1=C(C(=O)Nc2ccccc2)C(c2ccccc2C)n2ncc(C(=O)Nc3ccccc3)c2N1 (centres undefined) -1.2%
Cc1cc(C)cc(OCCn2c(C3CC(=O)N(c4ccccc4Cl)C3)nc3ccccc32)c1 (centres undefined) 1.18%
Cc1ccc2c(=O)c(C(=O)c3ccccc3)cn(CC(=O)Nc3ccc4c(c3)OCCO4)c2n1 6.28%
CC(C)(C)c1ccc(C2Sc3ccccc3NC3=C2C(=O)c2ccccc23)cc1 (centres undefined) 3.99%
Cn1c(=O)c2sccc2n2c(CCC(=O)NCc3ccc(F)cc3)nnc12 -9.87%
COc1ccc(CCNC(=O)CCn2c(=O)c3ccccc3n(CC(=O)Nc3ccccc3F)c2=O)cc1OC 13.8%
CCCCN(CC)CCNC(=O)Cn1cnc2sc(C)c(S(=O)(=O)N3CCC(C)CC3)c2c1=O -1.93%
O=C1c2oc3ccccc3c(=O)c2C(c2ccc(Br)cc2)N1c1ccccn1 (centres undefined) -2.52%
COC(=O)c1cnn(-c2ccc(C(=O)Nc3cccc(C(C)=O)c3)cc2)c1N 3.04%
CCOc1ccc(NC(=O)CC2C(=O)N(c3ccccc3)C(=O)N2CCc2ccc(OC)cc2)cc1 (centres undefined) 1.18%
Cn1c(=O)oc2cc(S(=O)(=O)N3CCC(C(=O)NCc4ccccc4Cl)CC3)ccc21 0.266%
Cc1ccc(NC(=O)Cn2nc(C)c3nn(-c4ccc(Cl)cc4)c(C)c3c2=O)cc1C -1.45%
O=C1CN(C(=O)Cc2ccc(F)cc2)C(c2ccccc2)c2cc(Br)ccc2N1 (centres undefined) -13.9%
CC(=O)c1ccc(N2CCN(S(=O)(=O)c3c(C)nc4sc(C)cn4c3=O)CC2)cc1 3.79%
CCCn1c(SCc2nc(-c3ccccc3C)no2)nnc1-c1ccc(Cl)cc1 1.96%
Cc1cccc(OCc2cc(=O)n3c(-c4ccccc4)csc3n2)c1C 0.75%
COc1ccc(N2C(=O)CSC23C(=O)N(CC(=O)NC2CCCCC2)c2ccccc23)cc1 (centres undefined) -2.75%
Cc1cccc(N2CCN(C(=O)C3CCC(CNS(=O)(=O)c4ccc(Br)s4)CC3)CC2)c1C (centres undefined) -20%
CCc1nn(CC(=O)N2CCN(c3cccc(C)c3C)CC2)c(=O)c2cc3occc3n12 -3.72%
CCc1nn(CC(=O)NC(C)CCc2ccccc2)c(=O)c2cc3cc(F)ccc3n12 (centres undefined) 0.442%
NC(=O)CSc1oc(-c2ccco2)nc1S(=O)(=O)c1ccc(Br)cc1 -1.11%
CCCCn1cc(S(=O)(=O)c2ccc(C)c(C)c2)c(=O)c2cc(F)c(N3CCN(C)CC3)cc21 -1.33%
Cn1c(CN2CCCCC2)nc2cc(NC(=O)c3cccc(Br)c3)ccc21 -6.97%
CCn1cc(C(=O)NCCCOC(C)C)c(=O)c2cc(S(=O)(=O)N3CCc4ccccc4C3)ccc21 -2.87%
O=C(CN1C(=O)CCSc2ccc(S(=O)(=O)N3CCCC3)cc21)Nc1ccccc1 0.967%
CCC(C(=O)Nc1ccccc1C(=O)OC)n1c(C)c2cnn(-c3ccccc3)c(=O)c2c1C (centres undefined) 0.0716%
CCC(Oc1ccccc1)C(=O)Nc1ccc(O)c(-c2nc3cc(C)ccc3o2)c1 (centres undefined) -9.27%
Cn1c(NCCCCO)nc2c1c(=O)n(Cc1ccc(Cl)cc1)c(=O)n2C -6.02%
COc1cccc(NC(=O)CCS(=O)(=O)c2ccc3c(c2)oc(=O)n3C)c1 -1.83%
O=C(Cn1cc(S(=O)(=O)Cc2ccccc2Cl)c2ccccc21)NCc1ccccc1Cl -2.45%
Cc1c2cnn(CC(=O)N3CCN(c4ccccc4)CC3)c(=O)c2c(C)n1Cc1ccc(F)cc1 -2.67%
CCOc1ccccc1NC(=O)CCS(=O)(=O)c1cccc2nsnc12 -3.57%
Cc1ccc(C)c(Cn2c(C(C)NC(=O)c3ccc(F)cc3)nc3ccccc32)c1 (centres undefined) -12.6%
CCN(c1ccccc1)S(=O)(=O)c1cc(-c2onc(C)c2C)ccc1OC 0%
COc1cccc(N2C(=O)C(CC(=O)Nc3ccc(Cl)cc3)N(Cc3ccc4c(c3)OCO4)C2=O)c1 (centres undefined) -7.49%
CCc1cccc(NC(=O)c2nnn(Cc3ccc(SC)cc3)c2N)c1 -8.84%
COc1ccc(N2CCN(C(=O)c3c(C)oc4ncnc(N5CCCCC5)c34)CC2)cc1 -12.1%
CCOCCCNC(=O)C(c1ccccc1)N(Cc1cccs1)C(=O)c1ccc(NC(C)=O)cc1 (centres undefined) 1.26%
CCn1c(=O)c2sccc2n2c(CCCC(=O)N3CCN(c4ccc(OC)cc4)CC3)nnc12 1.69%
O=C1CC(c2ccccc2)Cc2[nH]c(=O)c(C(=O)Nc3ccc(OC(F)(F)F)cc3)cc21 (centres undefined) 1.32%
Cc1cccc(N2CCN(C(=O)C3CCCN(S(=O)(=O)c4cccc5nsnc45)C3)CC2)c1C (centres undefined) -0.0785%
Cc1cccc(-c2noc(CCCC(=O)NCc3ccco3)n2)c1 -11.8%
COCCn1c(CCC(=O)Nc2cc(C)ccc2C)nc2cccnc21 -17.6%
O=C(Nc1ccc(Br)cc1)C1CCCN(S(=O)(=O)c2ccc(Br)s2)C1 (centres undefined) -7.89%
CCOc1ccc(S(=O)(=O)N2CCN(c3cc(Cl)ccc3Cl)CC2)c2ccccc12 1.84%
